Measured values reported in the supplement of paper PMC4166925.
± gives the standard deviation of the averaged measurements. Whole data set: some 33,000 sequences, median “E-score (dimensionless, -0.5 to 0.5)” near -0.046, cut for the highest 2% near 0.36. The list shows a part of the results.

Test system: T1, SpTbr T-box DNA-binding domain (GST fusion)
T1 sequence: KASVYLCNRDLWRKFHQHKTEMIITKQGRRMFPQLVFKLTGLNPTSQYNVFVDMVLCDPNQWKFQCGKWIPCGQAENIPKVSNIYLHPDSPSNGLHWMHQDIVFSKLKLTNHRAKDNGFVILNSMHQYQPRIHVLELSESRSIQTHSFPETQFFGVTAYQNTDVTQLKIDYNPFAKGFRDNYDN
Test: PBM E-score of 8-mer (E-score (dimensionless, -0.5 to 0.5)); Tbr is Tbrain of the sea star Patiria miniata (Pm) or the sea urchin Strongylocentrotus purpuratus (Sp); higher = stronger binding preference; most listed sequences are background and not binding sites
Conditions: the construct has about 5 more residues each side
Summary of the method: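 Universal Agilent oligonucleotide arrays, made double-stranded by primer extension, were incubated with 200 nM GST-fused Tbr T-box DNA-binding domain in PBS (pH 7.5). The protein was expressed in BL21 E. coli at 20 °C and purified by glutathione affinity chromatography. After scanning and quantification, the Universal PBM Analysis Suite assigned an enrichment E-score to each ungapped 8-mer, averaged over duplicate arrays.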

Row | Sequence | PBM E-score of 8-mer
1 | AACTCCCG | 0.0204 ± 0.022
2 | TTACTCAA | 0.00021 ± 0.08
3 | ACTCGGCC | 0.0521 ± 0.011
4 | CTTCCCCC | -0.22 ± 0.011
5 | ATGCATAC | -0.0639 ± 0.046
6 | AGTGGTGA | 0.232 ± 0.014
7 | AGCCATAG | -0.026 ± 0.031
8 | CCGGACGC | -0.184 ± 0.015
9 | ACAAAACA | 0.0943 ± 0.064
10 | ATGTAGTG | -0.0103 ± 0.035
11 | GTTATAAA | 0.074 ± 0.028
12 | CTCACAGA | 0.107 ± 0.062
13 | AGTTGCAG | -0.175 ± 0.073
14 | GTTAGTAA | -0.0148 ± 0.072
15 | AAGACTTG | -0.0194 ± 0.08
16 | ACTTGATA | 0.108 ± 0.039
17 | CTGCGCCC | -0.162 ± 0.0045
18 | CCTTTACC | -0.0178 ± 0.021
19 | CGATTGCG | 0.157 ± 0.013
20 | GGTTATGA | -0.0949 ± 0.061
21 | AAGCTCCC | -0.322 ± 0.0072
22 | GGTGATCA | 0.227 ± 0.0073

Row | Sequence | PBM E-score of 8-mer
23 | CAGGCTCA | -0.177 ± 0.03
24 | ACGGAGTA | -0.323 ± 0.026
25 | AGACATTG | -0.161 ± 0.068
26 | TACTGAAA | -0.1869 ± 0.001
27 | GGCTAAGA | -0.233 ± 0.0036
28 | AGCGCCGG | -0.0591 ± 0.033
29 | AACCAGTT | -0.00751 ± 0.037
30 | CGTACACC | 0.0648 ± 0.081
31 | GCCCCGAC | -0.159 ± 0.06
32 | AAAGGGCT | -0.198 ± 0.056
33 | ACGCGCGT | 0.293 ± 0.022
34 | AGCCTCGG | -0.226 ± 0.0073
35 | TATTATAA | 0.0563 ± 0.02
36 | AGATGTCA | 0.139 ± 0.038
37 | ACGTACAC | 0.1791 ± 0.00065
38 | CCAAAACG | -0.169 ± 0.086
39 | TACACCAA | 0.0641 ± 0.095
40 | CCACAGGA | -0.22 ± 0.0092
41 | AAGAGCCC | -0.278 ± 0.022
42 | AGGCCACT | -0.0273 ± 0.0033
43 | TCGCAGAA | 0.00613 ± 0.035
44 | AATAGTCT | -0.149 ± 0.054

Row | Sequence | PBM E-score of 8-mer
45 | TACCAAGA | -0.0491 ± 0.026
46 | ATGTCGGC | -0.0704 ± 0.055
47 | GCAGTTGA | -0.0353 ± 0.041
48 | CCCCAGCA | -0.0347 ± 0.065
49 | AACTGCCC | -0.108 ± 0.011
50 | ACAGTTTC | 0.143 ± 0.065
51 | CTGGCGTC | 0.101 ± 0.041
52 | CACCCGAC | 0.231 ± 0.033
53 | ATTCCCTA | -0.192 ± 0.025
54 | CCTTTTCA | 0.081 ± 0.074
55 | AAGCGCCA | 0.123 ± 0.057
56 | AGTCCAAA | -0.149 ± 0.066
57 | ACTTCAAT | -0.0527 ± 0.032
58 | ATTGTTGC | 0.0572 ± 0.048
59 | GCTACATA | -0.128 ± 0.046
60 | CCACGACC | -0.173 ± 0.066
61 | AGCTACTC | -0.117 ± 0.011
62 | CACATTAC | 0.205 ± 0.0094
63 | AAAATGGG | -0.173 ± 0.048
64 | AGCTCGGC | -0.0737 ± 0.003
65 | AGCCACTA | 0.075 ± 0.041
66 | CGGTCATC | 0.0532 ± 0.03

Row | Sequence | PBM E-score of 8-mer
67 | GAGAAGGA | -0.133 ± 0.0076
68 | CACTATAG | 0.146 ± 0.047
69 | ACGTGCGG | 0.206 ± 0.011
70 | CTCTTCTA | -0.221 ± 0.083
71 | ATATCCTA | -0.051 ± 0.047
72 | GGATTTAC | -0.0213 ± 0.0077
73 | CCCCACGG | -0.137 ± 0.017
74 | GAATCTCA | 0.00406 ± 0.035
75 | GAAGGTAA | 0.0468 ± 0.022
76 | CTCAGATC | -0.0678 ± 0.025
77 | ACGCCGTC | 0.0176 ± 0.059
78 | ACTAATGC | -0.00588 ± 0.022
79 | AAGAACTG | -0.089 ± 0.092
80 | AGCCTGAT | -0.0423 ± 0.035
81 | GGCGTCGA | 0.266 ± 0.04
82 | ATACGCAC | 0.153 ± 0.063
83 | ATCGTCCA | -0.115 ± 0.02
84 | TGTGGGAA | 0.293 ± 0.038
85 | CCGACCTC | -0.148 ± 0.046
86 | CTCAGACA | 0.0357 ± 0.066
